# This is one part of the list. Repeats are few or missing, and single values can be far off.
# Columns and labels:
# Assay in all cases: cell count relative to DMSO control; melanoma cells; higher = more viable cells
# Details in all cases: library dose: standard library concentration; 72 h
# [1] = system: SkMel28
# [2] = system: SkMel2
# [3] = system: SkMel30
# [4] = system: SkMel5
# [5] = system: UACC257
# [6] = system: UACC62
# [7] = system: WM115
# [8] = system: WM1716
# [9] = system: WM1745
# [10] = system: WM3526
# 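Further: cells treated in 1,536-well plates, then fixed and DAPI-stained, with nuclei counted from automated high-throughput microscope images.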
Structure (SMILES),cell count [1] [%],cell count [2] [%],cell count [3] [%],cell count [4] [%],cell count [5] [%],cell count [6] [%],cell count [7] [%],cell count [8] [%],cell count [9] [%],cell count [10] [%]
"Oc1cc(-c2nc(-c3ccccc3)[nH]c2-c2ccncc2)ccc1Cl + O=C(Oc1ccc([N+](=O)[O-])cc1)N1CCC(C(O)(c2ccc3c(c2)OCO3)c2ccc3c(c2)OCO3)CC1 [JZL184] (first compound 1 µM, partner dose 5 µM)",50.5,27.9,78.6,64.8,83.3,42.5,53,71.3,56.2,46.1
"Clc1ccc(Nc2nnc(Cc3ccncc3)c3ccccc23)cc1 [vatalanib] + C[As](C)SC[C@H](NC(=O)CC[C@H](N)C(=O)O)C(=O)NCC(=O)O [Darinaparsin] (first compound 10 µM, partner dose 2 µM)",55.6,83.2,74.9,46.4,40.7,61.1,73.9,67.5,62.6,64.6
"CC(C)C[C@H](NC(=O)[C@H](Cc1ccccc1)NC(=O)c1cnccn1)B(O)O [Bortezomib] + C[As](C)SC[C@H](NC(=O)CC[C@H](N)C(=O)O)C(=O)NCC(=O)O [Darinaparsin] (first compound 0.005 µM, partner dose 2 µM)",19.6,35.4,21.2,19.7,77.5,62.9,23.9,17.7,44.9,25.3
"COc1ccc(COc2ccc(Cc3cnc(N)nc3N)cc2OC)cc1 + C/C(O)=C(\C#N)C(=O)Nc1cc(Br)ccc1Br [LFM-A13] (first compound 5 µM, partner dose 10 µM)",89.6,105,73.1,74.7,96.6,108,99.4,99.5,99,106
"C#Cc1cccc(Nc2ncnc3cc(OCCOC)c(OCCOC)cc23)c1 [erlotinib] + O=C(Oc1ccc([N+](=O)[O-])cc1)N1CCC(C(O)(c2ccc3c(c2)OCO3)c2ccc3c(c2)OCO3)CC1 [JZL184] (first compound 4 µM, partner dose 5 µM)",70.8,81.7,72.5,77.5,102,86.3,78.6,91.6,59.7,72
"Cc1cc(Nc2cc(N3CCN(C)CC3)nc(Sc3ccc(NC(=O)C4CC4)cc3)n2)n[nH]1 [Tozasertib] + C[As](C)SC[C@H](NC(=O)CC[C@H](N)C(=O)O)C(=O)NCC(=O)O [Darinaparsin] (first compound 0.03 µM, partner dose 2 µM)",73.7,92.9,91.4,61.7,81.7,55.9,77.6,56.2,60.9,81.5
"C=CCn1c(=O)c2cnc(Nc3ccc(N4CCN(C)CC4)cc3)nc2n1-c1cccc(C(C)(C)O)n1 + O=C(Oc1ccc([N+](=O)[O-])cc1)N1CCC(C(O)(c2ccc3c(c2)OCO3)c2ccc3c(c2)OCO3)CC1 [JZL184] (first compound 0.1 µM, partner dose 5 µM)",24.3,67.2,59.1,47.7,83.1,54.1,80.2,67.6,53.9,57
"COc1ccc(COc2ccc(Cc3cnc(N)nc3N)cc2OC)cc1 + Cc1cc(SCc2sc(-c3ccc(C(F)(F)F)c(F)c3)nc2C)ccc1OCC(=O)O [GW0742] (first compound 5 µM, partner dose 10 µM)",104,90.4,89.9,72.9,71,102,87.5,82.9,98.1,100
"O=C1NC(=O)/C(=C/c2ccc(-c3ccc(F)cc3O)o2)S1 + O=C(Oc1ccc([N+](=O)[O-])cc1)N1CCC(C(O)(c2ccc3c(c2)OCO3)c2ccc3c(c2)OCO3)CC1 [JZL184] (first compound 5 µM, partner dose 5 µM)",145,101,95.8,105,89.1,105,114,96.2,124,86.9
"Nc1ccn([C@@H]2O[C@H](CO)[C@@H](O)C2(F)F)c(=O)n1 [gemcitabine] + C[As](C)SC[C@H](NC(=O)CC[C@H](N)C(=O)O)C(=O)NCC(=O)O [Darinaparsin] (first compound 0.002 µM, partner dose 2 µM)",97.8,84.6,83.9,57.2,90.8,88.2,92.6,51.4,47.4,75.3
"COc1cc(N2CCC(N3CCN(C)CC3)CC2)ccc1Nc1ncc(Cl)c(Nc2ccccc2S(=O)(=O)C(C)C)n1 + O=C(Oc1ccc([N+](=O)[O-])cc1)N1CCC(C(O)(c2ccc3c(c2)OCO3)c2ccc3c(c2)OCO3)CC1 [JZL184] (first compound 0.4 µM, partner dose 5 µM)",68.5,68.7,89,54.2,86.9,62.4,65.1,72,45.5,75.8
"Cc1nc(Nc2ncc(C(=O)Nc3c(C)cccc3Cl)s2)cc(N2CCN(CCO)CC2)n1 [dasatanib] + Cc1cc(SCc2sc(-c3ccc(C(F)(F)F)c(F)c3)nc2C)ccc1OCC(=O)O [GW0742] (first compound 0.02 µM, partner dose 10 µM)",67.8,83.9,97.7,74,92.8,116,62,73.4,42.9,93.9
"C#Cc1cccc(Nc2ncnc3cc(OCCOC)c(OCCOC)cc23)c1 [erlotinib] + C/C(O)=C(\C#N)C(=O)Nc1cc(Br)ccc1Br [LFM-A13] (first compound 4 µM, partner dose 10 µM)",62.1,105,80.7,63.1,114,73.3,91.1,101,61,72
"CN1CCN(c2ccc3nc(-c4c(N)c5c(F)cccc5[nH]c4=O)[nH]c3c2)CC1 [Dovitinib] + O=C(Oc1ccc([N+](=O)[O-])cc1)N1CCC(C(O)(c2ccc3c(c2)OCO3)c2ccc3c(c2)OCO3)CC1 [JZL184] (first compound 0.5 µM, partner dose 5 µM)",54.3,57.2,54.4,67,72.9,72.1,60.2,77.5,–,55.8
"CO[C@H]1C[C@@H]2CC[C@@H](C)[C@@](O)(O2)C(=O)C(=O)N2CCCC[C@H]2C(=O)O[C@H]([C@H](C)C[C@@H]2CC[C@@H](OCCO)[C@H](OC)C2)CC(=O)[C@H](C)/C=C(\C)[C@@H](O)[C@@H](OC)C(=O)[C@H](C)C[C@H](C)/C=C/C=C/C=C/1C [everolimus] + Cc1cc(SCc2sc(-c3ccc(C(F)(F)F)c(F)c3)nc2C)ccc1OCC(=O)O [GW0742] (first compound 0.1 µM, partner dose 10 µM)",48.1,70.9,73.5,69.7,104,81,81.3,105,–,63.5
"Clc1ccc(Nc2nnc(Cc3ccncc3)c3ccccc23)cc1 [vatalanib] + O=C(Oc1ccc([N+](=O)[O-])cc1)N1CCC(C(O)(c2ccc3c(c2)OCO3)c2ccc3c(c2)OCO3)CC1 [JZL184] (first compound 10 µM, partner dose 5 µM)",91.1,83.1,112,96.8,56,120,93.1,89.6,–,81.1
"O=C(O)c1ccc2c(c1)nc(Nc1cccc(Cl)c1)c1ccncc12 + Cc1cc(SCc2sc(-c3ccc(C(F)(F)F)c(F)c3)nc2C)ccc1OCC(=O)O [GW0742] (first compound 2 µM, partner dose 10 µM)",56,83.9,75.5,85.8,85.9,61.9,110,103,–,74.1
"CO[C@H]1C[C@@H]2CC[C@@H](C)[C@@](O)(O2)C(=O)C(=O)N2CCCC[C@H]2C(=O)O[C@H]([C@H](C)C[C@@H]2CC[C@@H](OCCO)[C@H](OC)C2)CC(=O)[C@H](C)/C=C(\C)[C@@H](O)[C@@H](OC)C(=O)[C@H](C)C[C@H](C)/C=C/C=C/C=C/1C [everolimus] + C/C(O)=C(\C#N)C(=O)Nc1cc(Br)ccc1Br [LFM-A13] (first compound 0.1 µM, partner dose 10 µM)",42.6,68.4,61.3,52.5,105,86.9,77.3,87.3,–,81.3
"CN1CCN(c2ccc3nc(-c4c(N)c5c(F)cccc5[nH]c4=O)[nH]c3c2)CC1 [Dovitinib] + Cc1cc(SCc2sc(-c3ccc(C(F)(F)F)c(F)c3)nc2C)ccc1OCC(=O)O [GW0742] (first compound 0.5 µM, partner dose 10 µM)",90.1,83.4,113,91,94.2,84.6,91.7,93.3,–,111
"CC(C)C[C@H](NC(=O)[C@H](Cc1ccccc1)NC(=O)c1cnccn1)B(O)O [Bortezomib] + O=C(Oc1ccc([N+](=O)[O-])cc1)N1CCC(C(O)(c2ccc3c(c2)OCO3)c2ccc3c(c2)OCO3)CC1 [JZL184] (first compound 0.005 µM, partner dose 5 µM)",28.9,36.5,18,20.8,67.8,43.7,19.4,18.2,–,30.6
"COc1ccc(COc2ccc(Cc3cnc(N)nc3N)cc2OC)cc1 + O=C(Oc1ccc([N+](=O)[O-])cc1)N1CCC(C(O)(c2ccc3c(c2)OCO3)c2ccc3c(c2)OCO3)CC1 [JZL184] (first compound 5 µM, partner dose 5 µM)",91.4,–,90,95.8,79.7,108,85.8,84,86.6,81.9
"O=C(CCCCCCC(=O)Nc1ccccc1)NO [vorinostat] + O=C(Oc1ccc([N+](=O)[O-])cc1)N1CCC(C(O)(c2ccc3c(c2)OCO3)c2ccc3c(c2)OCO3)CC1 [JZL184] (first compound 0.4 µM, partner dose 5 µM)",52.3,–,83.8,76.9,76.7,55.1,74.1,70.9,80.7,65.1
